Hit rate of the full screen: of about 3,200 compounds, about 75 (2%) showed an effect of 50% or more. The list shows a part of the results.

The subject of the test is T1, S. aureus MSSA476.
T1 construct: MSSA476
On the set-up: species or system S. aureus MSSA476 (TSB) or V. cholerae SAD30 (LB); 384-well bacterial growth screen at 25 uM, OD600 relative to DMSO control. The settings on record: relative growth, OD600, TSB; 25 µM; inhibitor.
`Cc1cccc2nc(C3CCN(C(=O)C(C)Cl)CC3)oc12` (stereo not drawn) [7-M12, 2-chloro-1-[4-(7-methyl-1,3-benzoxazol-2-yl)piperidin-1-yl]propan-1-one]: the “% of control remaining” value is listed as 86.9702%. Turning to `CC(c1cccs1)N(C)C(=O)CCl` (stereo not drawn) [6-M21, 2-chloro-N-methyl-N-[1-(thiophen-2-yl)ethyl]acetamide], the “% of control remaining” value is reported as 85.7073%. `CC(Oc1cccc(F)c1F)C(=O)N1CCN(C(=O)CCl)CC1` (stereo not drawn) [5-H03, 1-[4-(2-chloroacetyl)piperazin-1-yl]-2-(2,3-difluorophenoxy)propan-1-one]: the “% of control remaining” value is 90.7104%. Under `O=C(CCl)N1CCC(OCc2ccccc2)CC1` [4-H19, 1-[4-(benzyloxy)piperidin-1-yl]-2-chloroethan-1-one] stands 111.672%; under `COCC(C)NC(=O)C(C#N)=Cc1ccc(F)c(C)c1` (stereo not drawn) [9-H09, 2-cyano-3-(4-fluoro-3-methylphenyl)-N-(1-methoxypropan-2-yl)prop-2-enamide], 106.667%; under `C=CC(=O)NCCc1cnc2c(Cl)cnn2c1` [1-L06, N-(2-{3-chloropyrazolo[1,5-a]pyrimidin-6-yl}ethyl)prop-2-enamide], 110.769%. In the case of `C=CC(=O)NCCN1C(=O)SC(=Cc2ccc(Cl)cc2)C1=O` [2-C05, N-(2-{5-[(4-chlorophenyl)methylidene]-2,4-dioxo-1,3-thiazolidin-3-yl}ethyl)prop-2-enamide], the “% of control remaining” value is reported as 95.3873%. Under `CC(Cl)C(=O)NCc1nc2c(s1)CC(c1ccccc1)CC2` (stereo not drawn) [7-A05, 2-chloro-N-[(6-phenyl-4,5,6,7-tetrahydro-1,3-benzothiazol-2-yl)methyl]propanamide] stands 74.7253%. For `C=CC(=O)N(CC)CC(=O)N1CCNC(=O)CC1c1ccccc1` (stereo not drawn) [3-E21, N-ethyl-N-[2-oxo-2-(5-oxo-7-phenyl-1,4-diazepan-1-yl)ethyl]prop-2-enamide], the “% of control remaining” value came to 104.832%. Turning to `COc1ccc(O)c(C=C(C#N)C(=O)Nc2cccc3ccccc23)c1` [8-N14, 2-cyano-3-(2-hydroxy-5-methoxyphenyl)-N-(naphthalen-1-yl)prop-2-enamide], the “% of control remaining” value turned out to be 101.909%. Under `N#CC(=Cc1ccc(F)cc1)C(=O)NCCc1cccc(Cl)c1` [8-K06, N-[2-(3-chlorophenyl)ethyl]-2-cyano-3-(4-fluorophenyl)prop-2-enamide] stands 83.3195%; under `Cc1ncccc1NC(=O)[C@H](C)NC(=O)C(C)Cl` (stereo partly drawn) [6-D09, 2-chloro-N-[(1S)-1-[(2-methylpyridin-3-yl)carbamoyl]ethyl]propanamide], 83.3171%.

The values above are taken from PMC11995724, “Antibiotic target discovery by integrated phenotypic and activity-based profiling of electrophilic fragments” (Cell chemical biology, 2025).
